Laboratory results taken from PubChem BioAssay AID1745845 (National Center for Advancing Translational Sciences (NCATS), 2022).
“And” between values parts separate entries of the source, which are not always exact repeats. Equal values may be shown once. The whole screen tested about 360,000 compounds, of which about 2,600 (0.72%) were called active. Inconclusive means that the source gave no clear call. Such entries were picked first, then a sample of the others. Calls follow the shape of the dose curve; as a rule, active = well fitted inhibition curve with a large enough effect; inconclusive = small, poorly fitted or top-dose-only effect; inactive = no such curve, though single readings can be large or run the other way. A potency beside an inconclusive call is a rough fit, not a confirmed value.
Potency is read from the fitted curve at half-maximal effect; tags tell the direction and shape of the fitted curve.

Assay: Primary qHTS for Inhibitors of ATXN expression; also: nearly all actives have a fitted effect of over 55% in size
Details: HEK-293 ATXN2-luciferase reporter, luminescence, 24 h; series mostly up to 57 µM
Summary of the method: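 qHTS (up to 57 uM final) was run with 24 h compound exposure of reporter cells at 37 °C. Each well was multiplexed: SteadyGlo luminescence measured ATXN2-luciferase expression after a fluorogenic Gly-Phe-AFC viability readout (25 uM final).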
With `N#Cc1nc(-c2ccc(OCc3ccccc3)cc2)oc1NCCCn1ccnc1` the Potency was inconclusive: 28.2 µM [inhibitor, single point]. For `Cc1ccc(C(C)NC(=S)NCc2ccc(F)cc2)cc1C` (stereo unspecified), the Potency was inconclusive: 15.8 µM [inhibitor, partial curve]. With `CC(=O)c1cccc(N2Cc3ccccc3C2=NC(=O)CCl)c1` the Potency was inconclusive: 37.7 µM [inhibitor, single point]. With `CC1Cc2cc(-c3csc(NC(=O)Cc4cccs4)n3)ccc2N1S(C)(=O)=O` (stereo unspecified) the Potency was inconclusive: 25.1 µM [inhibitor, partial curve, poor fit]. With `CCC(C)Sc1cc(-c2nc3ccccn3c2NC2CCCCC2)ccc1OC` (stereo unspecified) the Potency was inconclusive: 39.8 µM [inhibitor, single point] and inconclusive: 35.5 µM [inhibitor, single point]. For `CCN(CC)CCNc1ccc(CO)c2sc3ccccc3c(=O)c12`, the Potency was active: 12.6 µM and active: 28.2 µM. In the case of `Cc1ccc(F)cc1NC(=O)CCc1c(C)nn(-c2ccc(N3CCOCC3)nn2)c1C`, the Potency is reported as “inactive”. For `c1ccc2c(Nc3nnc(-c4ccncc4)s3)cccc2c1`, the Potency was “inactive”. For `COC(=O)C1=C(C(=O)OC)[C@@H]2N(Cc3ccccc3)c3ccccc3[C@@]23C[C@@H](C(=O)OC)N(C(=O)c2cccs2)C3=N1`, the Potency was inconclusive: 28.2 µM [inhibitor, partial curve]. With `Cc1ccc(C2Nc3cc(C)c(C)cc3-n3c(-c4ccccc4)c4c(=O)n(C)c(=O)n(C)c4c32)o1` (stereo unspecified) the Potency was inconclusive: 3.55 µM [inhibitor, full curve]. For `Cc1ccc2nc(-c3cccc(SC4CCCCC4)c3)c(NCc3ccccc3)n2c1`, the Potency was inconclusive: 39.8 µM [inhibitor, single point]. With `S=C1Cc2ccccc2N1` the Potency was active: 6.31 µM. With `Cc1[nH]n2c(=O)cc(-c3ccc(Cl)cc3)nc2c1-c1ccccc1` the Potency was active: 3.55 µM. With `CC1=CC(=Nc2c(C)n(C)n(-c3ccccc3)c2=O)C=C(C)C1=O` the Potency was inconclusive: 39.8 µM [inhibitor, single point]. With `Cc1ccc(NC(=O)C2CCC(C(C)(C)C)CC2)cc1S(=O)(=O)N1CCOCC1` (stereo unspecified) the Potency was inconclusive: 22.4 µM [inhibitor, single point]. In the case of `CN(NS(=O)(=O)c1ccc(Br)cc1)c1nc(C(F)(F)F)nc2ccccc12`, the Potency is reported as inconclusive: 39.8 µM [inhibitor, single point]. In the case of `CC(=O)N1CCc2cc(S(=O)(=O)Nc3cccc(C(F)(F)F)c3)ccc21`, the Potency is reported as inconclusive: 39.8 µM [inhibitor, partial curve, poor fit]. For `O=C(C1CCN(S(=O)(=O)c2ccc3c(c2)OCCO3)CC1)N1CCc2ccccc21`, the Potency was “inactive”. In the case of `c1cc(-c2ccc(N3CCOCC3)cc2)n2cnnc2c1`, the Potency is reported as “inactive”. In the case of `Cc1nc(Nc2ccncc2)c2oc3ccccc3c2n1`, the Potency is reported as inconclusive: 17.8 µM [inhibitor, single point]. In the case of `O=C(NCCc1csc(-c2ccc(C(F)(F)F)cc2)n1)c1ccc(F)c(F)c1`, the Potency is reported as active: 20 µM. For `Cc1cccc(CN2C(=O)[C@@H]3Cc4c([nH]c5ccccc45)C(C)(C)N3C2=O)c1`, the Potency was inconclusive: 28.2 µM [inhibitor, single point]. In the case of `Cc1cccc(NC2=Nc3ccccc3N3C2=Nc2c(c(C)nn2-c2ccccc2)C3c2ccc(O)c(O)c2)c1` (stereo unspecified), the Potency is reported as inconclusive: 31.6 µM [inhibitor, single point]. In the case of `O=C(Nc1cccc(NC(=O)c2ccc([N+](=O)[O-])o2)c1)c1ccco1`, the Potency is reported as “inactive”. For `Cc1ccc2nc(NC(=O)C3CCN(S(=O)(=O)c4cccc5nsnc45)CC3)sc2c1`, the Potency was inconclusive: 12.6 µM [inhibitor, partial curve, poor fit]. In the case of `CCN(c1cccc(C(F)(F)F)c1)S(=O)(=O)c1ccc2c(c1)CCN2C(=O)C1CC1`, the Potency is reported as inconclusive: 35.5 µM [inhibitor, single point]. With `COc1ccccc1CNc1nc(NCc2ccc(C)cc2C)c2sccc2n1` the Potency was inconclusive: 28.2 µM [inhibitor, single point]. In the case of `COc1ccc(C(CCN(Cc2ccc(OC)c(OC)c2)C(=O)CCl)c2ccccc2)cc1` (stereo unspecified), the Potency is reported as inconclusive: 25.1 µM [inhibitor, partial curve, poor fit]. For `CCc1ccc(NS(=O)(=O)c2ccc3oc(=O)c4ncn(CC)c4c3c2)cc1`, the Potency was inconclusive: 39.8 µM [inhibitor, single point]. For `FC(F)(F)c1nnc(-c2ccccc2)nc1Sc1ccccc1`, the Potency was inconclusive: 35.5 µM [inhibitor, single point]. With `CCCCOc1ccc(C(=O)NNC(=S)NC(=O)CC)cc1` the Potency was active: 25.1 µM. With `COc1ccc(-n2c(Cc3ccccc3)nnc2SCc2nc(-c3cccs3)no2)cc1` the Potency was inconclusive: 39.8 µM [inhibitor, single point]. With `CCOC(=O)C1CCN(C(=O)c2ccc(SC)cc2OC)CC1` the Potency was “inactive”. In the case of `CC(=O)c1c(C)[nH]c(C(=O)OCC(=O)NCCCc2ccccc2)c1C`, the Potency is reported as “inactive”. With `CN(CC(=O)NCc1ccc(Cl)cc1)S(=O)(=O)c1ccc2[nH]c3c(c2c1)CCCC3` the Potency was inconclusive: 25.1 µM [inhibitor, single point]. For `c1ccc(-c2sc3ccccc3c2-c2ccc(OCCN3CCCCC3)cc2)cc1`, the Potency was “inactive”. With `COc1cc(Cn2c3ccc(NC(=O)CC(C)c4ccccc4)cc3c(=O)n2C)ccc1F` (stereo unspecified) the Potency was inconclusive: 39.8 µM [inhibitor, partial curve, poor fit]. In the case of `Cc1ccnc(NC(=O)CCC(=O)N(CC(=O)NCc2ccc(F)cc2)Cc2ccccc2)c1`, the Potency is reported as inconclusive: 11.9 µM [inhibitor, partial curve]. For `CCCN(CCC)S(=O)(=O)c1ccc(C(=O)Nc2nnc(-c3cc(OC)cc(OC)c3)o2)cc1`, the Potency was inconclusive: 11.2 µM [inhibitor, partial curve]. In the case of `CC1CCC/C=C/C(=O)c2c(O)cc(O)cc2CC(=O)O1` (stereo unspecified), the Potency is reported as active: 10 µM. For `Cc1ccc(-n2nc3c(N4CCC(C(=O)NCc5ccccc5C)CC4)nnc(C)c3c2C)cc1`, the Potency was inconclusive: 22.4 µM [inhibitor, single point].
